Results from publication PMC4336329 (PLoS ONE, 2015).
Screen size: about 310,000 compounds; about 2,200 (0.71%) showed an effect of 50% or more. The effect is printed as a negative number. The list shows a part of the results.

molecular target: human ether-à-go-go-related gene (hERG) potassium channel (human, UniProt Q12809); experiment: primary screen, population patch clamp on CHO cells stably expressing hERG
Sequence (Q12809 whole entry, looked up): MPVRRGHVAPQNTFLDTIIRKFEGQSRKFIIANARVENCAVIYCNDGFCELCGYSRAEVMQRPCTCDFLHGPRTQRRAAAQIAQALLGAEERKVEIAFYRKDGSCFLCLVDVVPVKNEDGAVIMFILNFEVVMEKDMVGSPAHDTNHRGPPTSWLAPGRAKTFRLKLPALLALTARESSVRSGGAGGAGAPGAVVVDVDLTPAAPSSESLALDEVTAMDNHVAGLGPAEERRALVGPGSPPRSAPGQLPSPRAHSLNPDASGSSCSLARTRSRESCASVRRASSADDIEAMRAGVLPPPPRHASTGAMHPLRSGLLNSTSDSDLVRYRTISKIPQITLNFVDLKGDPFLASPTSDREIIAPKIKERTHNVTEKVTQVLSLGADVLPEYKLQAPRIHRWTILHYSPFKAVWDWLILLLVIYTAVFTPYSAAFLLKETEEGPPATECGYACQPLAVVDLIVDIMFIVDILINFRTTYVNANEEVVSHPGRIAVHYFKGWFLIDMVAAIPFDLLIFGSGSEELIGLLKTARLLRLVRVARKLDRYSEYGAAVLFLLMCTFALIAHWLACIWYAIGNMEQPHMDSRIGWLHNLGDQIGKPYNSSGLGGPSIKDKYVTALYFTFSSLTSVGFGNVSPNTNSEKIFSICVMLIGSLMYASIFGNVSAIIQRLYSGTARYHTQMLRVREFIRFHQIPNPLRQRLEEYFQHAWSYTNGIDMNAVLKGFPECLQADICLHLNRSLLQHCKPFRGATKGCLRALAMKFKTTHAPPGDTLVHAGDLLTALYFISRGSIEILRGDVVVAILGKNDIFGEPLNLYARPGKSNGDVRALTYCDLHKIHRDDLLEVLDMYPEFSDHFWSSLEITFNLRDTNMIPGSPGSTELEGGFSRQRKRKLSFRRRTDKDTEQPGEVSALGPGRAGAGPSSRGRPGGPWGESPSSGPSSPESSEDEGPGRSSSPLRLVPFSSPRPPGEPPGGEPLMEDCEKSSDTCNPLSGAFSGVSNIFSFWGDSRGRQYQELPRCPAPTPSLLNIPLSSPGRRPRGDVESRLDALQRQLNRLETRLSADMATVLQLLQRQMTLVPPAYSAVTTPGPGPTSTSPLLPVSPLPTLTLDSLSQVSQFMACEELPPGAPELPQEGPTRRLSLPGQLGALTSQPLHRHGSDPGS

SMILES	hERG current change (%, negative = inhibition) at 1uM
Brc1ccc(N/N=C(/N=Nc2nn[nH]n2)c2ccccc2)cc1	12.8%
CCN(CC)S(=O)(=O)c1ccc(NC(=O)COC(=O)CCc2cc(OC)c(OC)c(OC)c2)cc1	10.2%
Cl.N=c1sccn1CC(=O)Nc1ccccc1Sc1ccccc1	-2.61%
COc1ccc(Cl)cc1NC(=S)NN1CCOCC1	26%
Cc1ccc(CC(CC(=O)O)C(=O)NCc2ccccc2)cc1 (stereo not drawn)	15.3%
CCN(CC)CCn1c2c(c(SCC(=O)Nc3ccc(C)c(F)c3)nc1=O)CCCC2	-43.9%
COc1ccc(-c2cc(NCCc3ccncc3)n3ncnc3n2)cc1	-19.9%
CCOC(=O)Cc1csc(NC(=O)c2ccc(Br)o2)n1	11%
CC(C)NC(=O)C1CCN(C2CCN(C(=O)Cc3ccc4c(c3)OCO4)CC2)CC1	4.98%
O=C(NCc1ccco1)C1CC(O)CN1C(=O)Nc1ccccc1 (stereo not drawn)	19.4%
CCOC(=O)c1cc(CN2CCOCC2)oc1-c1ccccc1	-8.28%
Cc1ccc(S(=O)(=O)N2CCOCC2)cc1NC(=O)CN1CCC(Cc2ccccc2)CC1.O=C(O)C(=O)O	-4.02%
Cc1cc(Oc2ccc(Cl)cc2)nc(-c2ccccc2O)n1	6.44%
O=C(O)C1Nc2ccc(OC(F)(F)F)cc2C2C=CCC12 (stereo not drawn)	15.3%
COc1ccc(C(=O)NCC(C)(C)CNC(=O)c2ccc(OC)c(OC)c2)cc1OC	-0.0282%
COc1ccc(NC(=O)Cn2nnc(C(=O)NCc3ccc(C)cc3)c2N)cc1OC	17%
Cc1ccc(OCCC(=O)OCC(=O)NCCc2ccccc2)cc1	16.5%
Cc1ccc(OCc2nnc(SC(C)C(=O)O)n2-c2ccccc2)cc1 (stereo not drawn)	18.1%
Cc1ccc(C(=O)NCCc2ccccc2)cc1	5.34%

SMILES	hERG current change (%, negative = inhibition) at 1uM
N#Cc1c(N)n(-c2ccc(N)cc2)c2nc3ccccc3nc12	12%
COc1ccccc1CNC(=O)C1CCCN(S(=O)(=O)c2ccc3c(c2)CC(C)N3C(C)=O)C1 (stereo not drawn)	-0.514%
COc1ccc(S(=O)(=O)N(C)CC(=O)NC2CCCCC2)cc1Cl	-1.1%
COc1cccc2c1OCC(C(=O)NCc1ccc(Cl)cc1Cl)=C2	14.9%
Cc1nc2ccc(NC(=O)c3ccc(S(=O)(=O)N(C)c4ccccc4)cc3)cc2s1	4.8%
NNc1nc2c(Cl)c(Cl)ccc2s1	20.3%
COc1ccc(C)cc1NC(=O)C1CCN(C(=O)C2CC(=O)N(c3ccc(C)cc3)C2)CC1 (stereo not drawn)	9.6%
CCn1c(SCC(=O)c2ccc(Br)cc2)nnc1C(C)NC(=O)Cc1ccc(OC)cc1 (stereo not drawn)	-19.1%
COc1ccc(C2=CC(=O)C[C@H](c3ccc(OC)c(OC)c3)C2)cn1	7.11%
O=C1NN(c2ccc(F)cc2)C(=O)/C1=C\C=C\c1ccco1	10.6%
Cc1nc(-c2cccc(N)c2)cs1	9.09%
CCCN(CC(=O)Nc1ccccc1C)C(=O)c1ccc(-c2ccc([N+](=O)[O-])cc2)o1	1.51%
O=C(Nc1ccccn1)c1cccc(S(=O)(=O)N2CCCCC2)c1	4.89%
O=C(O)c1ccccc1S(=O)CCO (stereo not drawn)	4.9%
O=C(NCc1cccs1)N[C@@H](Cc1ccccc1)C(=O)O	8.42%
NC(=O)c1oc2ccccc2c1NC(=O)c1ccc(F)cc1	11.1%
CSc1nc(-c2ccc(C)cc2)[nH]c1S(=O)(=O)c1ccccc1	14%
C1CNCCN1.COc1cc(C(O)CO)ccc1O (stereo not drawn)	10%
CC1(C(=O)NCc2cc(F)cc(C(F)(F)F)c2)C=CC2(CCCCC2)N1C(=O)c1ccccc1 (stereo not drawn)	6.9%

SMILES	hERG current change (%, negative = inhibition) at 1uM
Cc1ccc(NC(=O)c2ccc(NCCN)c([N+](=O)[O-])c2)cc1	3.49%
CC(=O)Nc1cc2c(cc1NC(=O)c1cnccn1)OCCO2	19.8%
CC(=O)c1cccc(NC(=O)NC(C)C2CCCO2)c1 (stereo not drawn)	11.5%
Cn1c(=O)c(C(=O)CN2CCCCCC2)c(N)n(Cc2ccccc2)c1=O	3.57%
CCN(CC)C(=O)CN1C(=O)C2(NC(=O)c3ccccc3N2)c2ccccc21 (stereo not drawn)	16.5%
O=S(=O)(Nc1ccccc1)c1cccc2nsnc12	17.3%
CCOC(=O)C(=N/O)/C(C)=N/NC(C)=O	15.9%
COc1cccc(OCCn2c(C)c(/C=N/n3cnnc3)c3ccccc32)c1	6.18%
O=C(Nc1ccccc1)c1ccc(NCc2ccco2)c(S(=O)(=O)N2CCOCC2)c1	3.17%
CCOC(=O)C1=C(C)NC2=C(C(=O)c3ccccc32)C1c1cccc2ccccc12 (stereo not drawn)	14.3%
Cc1cc(C)nc(N2CCC(C(=O)NCc3ccco3)CC2)n1	1.22%
CC(=O)c1cccc(NC(=S)NC2CC2)c1	2.81%
Cc1ccc(S(=O)(=O)NNC2=NCCCCC2)cc1	2.68%
CN(C)/C=C/C1=C([N+](=O)[O-])C(c2cccc([N+](=O)[O-])c2)NC(=O)N1 (stereo not drawn)	9.47%
O=C(/C=C/c1ccccc1)NC(=S)Nc1ccc(N2CCOCC2)cc1	14.7%
CCOc1ncccc1C(=O)Nc1nnc(C)s1	10.8%
CSc1ncc(C(=O)Nc2ccc(Cl)cc2)c(C)n1	16%
Cc1ccc(C)c(S(=O)(=O)N2CCCCC2CCNC(=O)C(=O)NCc2ccccn2)c1 (stereo not drawn)	10.7%
Cc1ccccc1NC(=O)CN1C(=O)N/C(=C\c2ccccc2OCc2ccc(C(=O)O)cc2)C1=O	15.4%
